{
  "source": "paper PMC12136788",
  "binders": {"B1": {"name": "13816878_13816998_1800_CDS_ENSMUSG00000006586_ENSMUST00000098257|mouse|control|control (ssRNA)", "RNA": "GGGAGUUCUACAGUCCGACGAUCCGGGGUGGUAGACCUCGGAGUGGCUGCUGGUGGUGUGUCCAUUGGGCUCCCAGCCCCACUGCUGGGUGUGACUGAGGAGCUGACAGCGGGCGUGUCUCCCUGCUGUGGGGCCUGCAGGGUCAACAGAGGAUUGAGCAUCA"}, "B2": {"name": "chr4:140556289:140556290:+_ENSMUSG00000036622_ENSMUST00000037055|mus_mus|mus_mus_mus_hu_False|18_88 (ssRNA)", "RNA": "GGGAGUUCUACAGUCCGACGAUCGAUGGAGCUCACCAGGCCCCCUUUGGCUGUGCAGAACCCUGUGCGGGUCACCACUGCCAGGACGUGCGGUCCCACAUAGGCCCGGGCCUGCAAAAUGAGGGUGCCGCAGAAGAGUGUGUGCAACAGAGGAUUGAGCAUCA"}, "B3": {"name": "chr14:59828787:59828788:+_ENSMUSG00000035469_ENSMUST00000043227|mus_hu|FALSE|FALSE (ssRNA)", "RNA": "GGGAGUUCUACAGUCCGACGAUCGAGUGAAGAUGGGCCACUUUCCGACAUCCACCAUGACUCUGGCUUCAAGCAAUUCCUAUAAAUAAGCCGACAUCUCUGAGUCCAGGAGGUUGAGGCUGCAGUGAGCCGUGUUCACACCACCAACAGAGGAUUGAGCAUCA"}, "B4": {"name": "chr16:17043922:17043923:+_ENSMUSG00000063358_ENSMUST00000069107|mus_mus|FALSE|FALSE (ssRNA)", "RNA": "GGGAGUUCUACAGUCCGACGAUCACGGCCUGCUGCCAGAACUCUCUGGACUGAAGGAAUUCCGUGAAAGUAUAAAAGCUGCUACUACCAGAAACUGCCCCUCUGAAAGGCUCAAAGGAGUCAAGAGUGGGUAAGCUGAGACGGCAACAGAGGAUUGAGCAUCA"}, "B5": {"name": "10525023_10525143_4246_3pUTR_ENSMUSG00000024743_ENSMUST00000169121|mouse|control|control (ssRNA)", "RNA": "GGGAGUUCUACAGUCCGACGAUCCACCCCUCCACCCAGGCUGGGUCACUACUAUUCCUAGUAGUCUGAGGGGAGAACAGCUAUGUGGGGGGAUGCUGAGCUGACUGGCUAAGAGGUGCAGGAGCACGCUCUGCAUAAACCCGCCAACAGAGGAUUGAGCAUCA"}, "B6": {"name": "chr2:172809444:172809445:+_ENSG00000128708_ENST00000264108|hu_mus|FALSE|FALSE (ssRNA)", "RNA": "GGGAGUUCUACAGUCCGACGAUCCUCAUCAACUUUAGAUGAAUAUUCAACACGGAACAGUGUUGACAGGCUACCAGCAAUAUAGUACAGCAAGAUCUUCAGGCCCUUGUAACCGAAAGCAGUUUCAUCAUCCCCAAAGAGCUGCAACAGAGGAUUGAGCAUCA"}, "B7": {"name": "chr4:6882955:6882956:+_ENSG00000170871_ENST00000425103|hu_hu|motif|central (ssRNA)", "RNA": "GGGAGUUCUACAGUCCGACGAUCACCGCAGUCGGAAGGAAAAUUAACUGCAGUUAAGAUGCAAAAAGCAGUGAUACUUCGGAGACAAGCACAUGCACACCCAUUCUUGAUUUGACAACACAAUCUAGUCUAUUUCAAAUAGCCCAACAGAGGAUUGAGCAUCA"}, "B8": {"name": "chr7:97836282:97836283:+_ENSG00000164715_ENST00000297293|hu_mus|motif|central (ssRNA)", "RNA": "GGGAGUUCUACAGUCCGACGAUCAAAGCGAGGUCUCCCUCUGUGUUAGGGACAGCAGACUCCUCCGAUGAUGUACUGAAGCGGCGCUGAAGAUGUGAAAUCCCUUUCAGAACAAGAGGAGAGCUGGGUGCUUGGUACAGGAAACAACAGAGGAUUGAGCAUCA"}, "B9": {"name": "chr6:86333760:86333761:-_ENSG00000135316_ENST00000355238|hu_mus|hu_hu_hu_mus_True|78_98 (ssRNA)", "RNA": "GGGAGUUCUACAGUCCGACGAUCUUCCUCAAGAAUCUGUUCCUUGGUUUUACUCUUAGGAAUAGAGCCCACAAAAAGCCUAUUGUUGGCAACUGAGAUGCAGACACCAAUGUGCUUCCCGGAACGAAUUUCAUGAUUAUUAUACAACAGAGGAUUGAGCAUCA"}, "B10": {"name": "chr14:89338683:89338684:+_ENSG00000165533_ENST00000346301|hu_hu|hu_hu_hu_mus_False|48_68 (ssRNA)", "RNA": "GGGAGUUCUACAGUCCGACGAUCGUGGUUGUUGUGGACCAGGGCCAGCCUGAAGCAUUGGUGGGCCAAAUUUGUAUCUCCGAUUCCCACAGCUACAUGCCCCAGGUUGUACCAGACAUCAGCUGCCUCUUCUUCAUUUUCAGCCAACAGAGGAUUGAGCAUCA"}, "B11": {"name": "chr2:160855017:160855018:-_ENSMUSG00000057133_ENSMUST00000039782|mus_mus|motif|central (ssRNA)", "RNA": "GGGAGUUCUACAGUCCGACGAUCAUCCUUUUCCAGUUCUUCCAUUGUGGCCCAUUUACAAUGUAAAUAGGAAAAAUUUCGGUACUUAACGUAGAAAAGCUCUAGGUCGAAUGGAGGUUCUCCUGGGUGAACCUCCUGGACAGUCAACAGAGGAUUGAGCAUCA"}, "B12": {"name": "chr6:40197388:40197389:+_ENSMUSG00000057716_ENSMUST00000061740|mus_mus|mus_mus_mus_hu_False|58_68 (ssRNA)", "RNA": "GGGAGUUCUACAGUCCGACGAUCGAGACACUGGGGUGGAUUUAUUCCACCUCUGUUUGGGUGCUAGUAAGAUAGAUAGCUAUUUUGGGAUUCAUGGCCUUGAAUAUCAAGAGGGAAAGGAAGAGGAUGGAAAGAGUCAAGAGUCAACAGAGGAUUGAGCAUCA"}, "B13": {"name": "chrX:71549400:71549401:+_ENSMUSG00000019087_ENSMUST00000019231|mus_hu|mus_mus_mus_hu_False|38_38 (ssRNA)", "RNA": "GGGAGUUCUACAGUCCGACGAUCGCAGUAGGAAGAGGGAAGCUCUUCAGUCCAGUGCGCUGCAGGGUGGGAAAGCAACAACACGGACACCGUCCCACCUCAAUUCCCCCCACUGGCACAGGGUCACACAAUCUGGGUCAAAGACAACAGAGGAUUGAGCAUCA"}, "B14": {"name": "chr21:34924512:34924513:+_ENSG00000159140_ENST00000381679|hu_mus|FALSE|FALSE (ssRNA)", "RNA": "GGGAGUUCUACAGUCCGACGAUCAGAUGACAUCAUGGAACGUUCUGCAGCAUAGGACAUCAUCAUAGAACGUCUAGAUGCUAACAUCAAGGGUCUAGGUGCUAACCUGUAUGGCCUAGGUGCUAUCCUAUAGGACCUGGGUGCCAACAGAGGAUUGAGCAUCA"}},
  "note": "Some of the results follow.",
  "data": [
    {"molecular_target": "T1, UNK ZnF1-3 (human, UniProt Q9C0B0 31-174)", "T1 sequence": "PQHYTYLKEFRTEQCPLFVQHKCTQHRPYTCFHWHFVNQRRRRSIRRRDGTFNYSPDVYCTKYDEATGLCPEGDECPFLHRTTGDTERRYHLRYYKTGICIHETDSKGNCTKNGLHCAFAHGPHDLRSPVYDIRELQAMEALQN", "assay": "nsRBNS (natural sequence RNA bind-n-seq); RBNS binding buffer (assumed for nsRBNS): 25 mM Tris pH 7.5, 150 mM KCl, 3 mM MgCl2, 0.01% Triton X-100, 500 ug/ml BSA, 20 U/ml SUPERase-In, 4 C; UNK is unkempt and MSI1 is Musashi-1; names of the RNAs are library labels; protein concentration not given here; high values mean tight binding", "units": {"binding signal": "enrichment R"}, "values": [
      {"binder": "B1", "binding signal": 0.779},
      {"binder": "B2", "binding signal": 1.71},
      {"binder": "B3", "binding signal": 1.12},
      {"binder": "B4", "binding signal": 1.04},
      {"binder": "B5", "binding signal": 1.1},
      {"binder": "B6", "binding signal": 1.45},
      {"binder": "B7", "binding signal": 1.65},
      {"binder": "B8", "binding signal": 1.27},
      {"binder": "B9", "binding signal": 0.873},
      {"binder": "B10", "binding signal": 0.666},
      {"binder": "B11", "binding signal": 0.631},
      {"binder": "B12", "binding signal": 1.51},
      {"binder": "B13", "binding signal": 1.39},
      {"binder": "B14", "binding signal": 0.427}
    ]}
  ]
}
